We go through 167 variants from the RNAGym collection of RNA variant scans (doi:10.7554/elife.90254).

The chains are these.
B1: LINE1-mini (parent)
chain: GGCAGAGCUCAACACAGCGUGGCAAAGUGGCUGUGGCUAGACUGCC

Read counts are not given, so values of variants with three or more changes are uncertain.

The variants in the series derive from B1. Description: self-cleavage, relative activity (ratio to wild type); higher = more cleavage; in vitro, sequencing; the parent is a self-cleaving ribozyme.
As to G1U A25U A41U, the self-cleavage was 0.31.

As for G1U A14C A16C U43A, the self-cleavage came to 0.

G1U A39U C46G: the self-cleavage was 0.49.

As for G1U A14U A39G C42G, the self-cleavage worked out at 0.08.

G1U A6C G21U: the self-cleavage stood at 0.05.

In the case of G1U A12G A16C G36U, the self-cleavage worked out at 0.06.

Regarding G1U A14G G29C, the self-cleavage was 0.29.

On to G1U A14G G29U, for which the self-cleavage is 0.3.

As for G1U C3A G35U U38C, the self-cleavage was 0.23.

On to G1U A4G A11G U20G C31A, for which the self-cleavage came out at 0.01.

In the case of G1U C3G A11G, the self-cleavage was 0.11.

In the case of G1U C3A A39G, the self-cleavage was found to be 0.36.

Take G1U A4U G22C C31G: the self-cleavage turned out to be 0.01.

For the variant G1U A11U U20C G44A, the self-cleavage amounted to 0.02.

Consider G1U A12U A14U G35A, for which the self-cleavage was found to be 0.04.

Regarding G1U A14U G22C G27C G30U, the self-cleavage worked out at 0.21.

As to G1U A41U U43A, the self-cleavage turned out to be 0.1.

As for G1U A14C C18A, the self-cleavage is 0.04.

Turning to G1U A6G A14U G17U A41C, the self-cleavage worked out at 0.04.

For G1U A14U U20C A25C, the self-cleavage was 0.13.

As to G1U A12G A14C, the self-cleavage came out at 0.01.

G1U A12G A14G: the self-cleavage stood at 0.02.

With G1U A4G A6U U9C G27C A39C, the self-cleavage worked out at 0.07.

On to G1U A26G U32A, for which the self-cleavage came to 0.06.

Take G1U C3A A24G A26G C46A: the self-cleavage is 0.86.

In the case of G1U A11C U28A, the self-cleavage was 0.04.

With G1U A11G G22U U34G A41C, the self-cleavage was found to be 0.01.

For the variant G1U A4U U9G G29U, the self-cleavage stood at 0.01.

Take G1U A11U G17U U28A G29U G36A: the self-cleavage was 0.01.

Consider G1U A12G C13U G30A G35C, for which the self-cleavage worked out at 0.02.

Consider G1U A4C U20G G21U U38G C42A C45U, for which the self-cleavage came out at 0.05.

Regarding G1U A6C A16C G22U, the self-cleavage is 0.05.

Consider G1U A6U A16U U20A, for which the self-cleavage turned out to be 0.03.

Take G1U C3A C18G G29A G40A: the self-cleavage was 0.33.

For the variant G1U A6G G21A A24U U28G G29A U38C, the self-cleavage stood at 0.1.

G1U A4G G36A G40A: the self-cleavage is 0.02.

Consider G1U A4G C8U C10U G17A, for which the self-cleavage is 0.02.

Regarding G1U A11C A25U G40U, the self-cleavage was determined as 0.02.

Turning to G1U C3A C42A, the self-cleavage was determined as 0.14.

For the variant G1U A25C G35U, the self-cleavage is 0.02.

For G1U A12C C42G, the self-cleavage worked out at 0.02.

For G1U A16C G40C, the self-cleavage came out at 0.03.

In the case of G1U A16G A41G, the self-cleavage turned out to be 0.06.

Consider G1U A16G A41C, for which the self-cleavage amounted to 0.02.

Turning to G1U A11U C18A C42G, the self-cleavage stood at 0.01.

In the case of G1U A12C G40U, the self-cleavage is 0.03.

Regarding G1U A12C G40C, the self-cleavage is 0.01.

Turning to G1U A6U C10G A12U A14U G35C C37A, the self-cleavage is 0.

Consider G1U A26U A41U, for which the self-cleavage amounted to 0.37.

G1U A12C G36U G44U: the self-cleavage stood at 0.01.

In the case of G1U A4C G17C G22U U28C, the self-cleavage came out at 0.05.

G1U A12C U38C: the self-cleavage amounted to 0.02.

For the variant G1U A26U G36A, the self-cleavage amounted to 0.15.

Turning to G1U A14G G17A G30C C31U, the self-cleavage stood at 0.01.

In the case of G1U A12G C23G C42A, the self-cleavage came out at 0.02.

In the case of G1U A4G U9G C46A, the self-cleavage was 0.03.

With G1U A6C A11G G21A, the self-cleavage was 0.04.

G1U A11G G21C: the self-cleavage is 0.02.

In the case of G1U A6U G17A, the self-cleavage was found to be 0.23.

Consider G1U A6G U38G, for which the self-cleavage is 0.01.

G1U C3A A11C C15U U43G: the self-cleavage came out at 0.02.

On to G1U C3G A16U C23A C37U C42U, for which the self-cleavage is 0.07.

As to G1U A16U G35U G36C, the self-cleavage stood at 0.01.

Consider G1U A26C A39C, for which the self-cleavage turned out to be 0.02.

For G1U A26U G30C C31U, the self-cleavage was 0.09.

As for G1U A11U G22U U34C, the self-cleavage stood at 0.02.

For the variant G1U A6G C15A A16C, the self-cleavage was found to be 0.01.

Regarding G1U A6C A41G C46A, the self-cleavage was determined as 2.73.

Turning to G1U A6G G35U, the self-cleavage amounted to 0.03.

G1U A4U G36U: the self-cleavage was 0.04.

Take G1U A11G U28G: the self-cleavage is 0.

G1U C3A C8U C31U C37U C42A: the self-cleavage stood at 0.14.

In the case of G1U A6U G22C A26G, the self-cleavage was 0.21.

For G1U A14G G19A G21U C46U, the self-cleavage is 0.22.

Consider G1U A12U A14G, for which the self-cleavage was determined as 0.04.

Take G1U A12C U28G: the self-cleavage amounted to 0.

As to G1U A4G C13A C37U, the self-cleavage came to 0.17.

For the variant G1U A41G U43C, the self-cleavage was 0.01.

On to G1U A14U G27A A41U, for which the self-cleavage was 0.02.

As to G1U A14G G17A U38G, the self-cleavage worked out at 0.02.

With G1U A24U G33U, the self-cleavage came to 0.08.

G1U A4C U20A G21U G40U C45A: the self-cleavage amounted to 0.04.

In the case of G1U A12G G30A, the self-cleavage amounted to 0.01.

As to G1U A4U A16U C23U C46A, the self-cleavage was 0.04.

For the variant G1U A11C C18U G19A G22C G33U, the self-cleavage was 0.01.

Take G1U A4G G7A A24C G35U: the self-cleavage amounted to 0.05.

In the case of G1U A14U A24C G40C, the self-cleavage turned out to be 0.07.

Consider G1U A12G G40A, for which the self-cleavage is 0.02.

As to G1U A6C A26C U28C A39C, the self-cleavage turned out to be 0.

Turning to G1U A12G G19U C37U, the self-cleavage is 0.04.

As to G1U C3G A14U C15G C42A, the self-cleavage was 0.05.

In the case of G1U C3G A4U A6G U9G G35C, the self-cleavage worked out at 0.03.

G1U A11C U34A: the self-cleavage worked out at 0.01.

As for G1U A6C G19U U20C U28G, the self-cleavage is 0.02.

G1U A6C A39U A41U: the self-cleavage was found to be 0.02.

With G1U A6G G17U A39U, the self-cleavage worked out at 0.

For the variant G1U A11G G40U, the self-cleavage was found to be 0.01.

Regarding G1U A4G G36U, the self-cleavage turned out to be 0.12.

Turning to G1U A12G A25U G33A U38G, the self-cleavage came to 0.

In the case of G1U A4G A6U U9A G36C, the self-cleavage was found to be 0.01.

Turning to G1U A11U U34G C46U, the self-cleavage was determined as 0.02.

In the case of G1U C3A G17A G22C C31G U32C G44U, the self-cleavage was determined as 0.1.

With G1U A14C C23U U32C, the self-cleavage turned out to be 0.06.

Take G1U A4G C23G C31U U32G: the self-cleavage stood at 0.07.

Regarding G1U A11C C31G, the self-cleavage is 0.

Turning to G1U A6C C46U, the self-cleavage stood at 0.31.

On to G1U A16C G21U U34C, for which the self-cleavage was found to be 0.01.

In the case of G1U A14U G40U, the self-cleavage was found to be 0.01.

For G1U A11U G33C C42U C45U, the self-cleavage stood at 0.01.

Turning to G1U A11U C18A G22A U43A, the self-cleavage stood at 0.

For G1U C3G A14G, the self-cleavage is 0.25.

As to G1U A24U C37A G40C, the self-cleavage was 0.05.

Consider G1U A24G G33U, for which the self-cleavage came out at 0.

Take G1U A16G C42U: the self-cleavage is 0.02.

With G1U A6G C13A C18A G21U U28G C45G, the self-cleavage amounted to 0.02.

For G1U C3A G40U, the self-cleavage is 0.08.

In the case of G1U C3A A16U G17U G40A, the self-cleavage worked out at 0.2.

In the case of G1U A14C A25U, the self-cleavage was 0.03.

As to G1U A12G C15A G30U G44A, the self-cleavage was 0.01.

Regarding G1U A11C G22A, the self-cleavage worked out at 0.07.

Consider G1U A6C G35U, for which the self-cleavage came out at 0.03.

With G1U A6U G22U G36U G40A C45U, the self-cleavage came out at 0.06.

With G1U C3A G21U C31A C42A, the self-cleavage is 0.33.

As to G1U A14C U20G, the self-cleavage was 0.06.

Take G1U A6U C8U C23G G27C: the self-cleavage stood at 0.01.

As for G1U A4C G29A U32A G44U, the self-cleavage came out at 0.02.

G1U A12G A26U: the self-cleavage turned out to be 0.02.

Consider G1U A16U A25U G40A C45A, for which the self-cleavage stood at 0.01.

For G1U A4U A12U C45A, the self-cleavage was determined as 0.01.

Regarding G1U A26C C31G, the self-cleavage is 0.

For the variant G1U A6U A14C G17C A25G, the self-cleavage is 0.01.

In the case of G1U A14C A24C A39G, the self-cleavage was determined as 0.01.

As to G1U A4G C10U A11C A12C G21U G33U, the self-cleavage came to 0.01.

Turning to G1U A12U A24C, the self-cleavage turned out to be 0.02.

In the case of G1U A11G A12C, the self-cleavage is 0.

Turning to G1U A24C U28G, the self-cleavage was 0.21.

As to G1U A24C U32C C37A, the self-cleavage came out at 0.07.

On to G1U C3G A14G C15U, for which the self-cleavage came to 0.37.

G1U A12C A14C A16U: the self-cleavage worked out at 0.01.

With G1U A16U U20C G29U G33U G36C C37U A39U C42U, the self-cleavage came to 0.01.

As to G1U A12C A25U G27U, the self-cleavage is 0.

Regarding G1U A12C A14G, the self-cleavage amounted to 0.01.

For the variant G1U A6G A16U G19A A25G G27U G30A, the self-cleavage was 0.01.

In the case of G1U A12C G30U C31A, the self-cleavage worked out at 0.

Consider G1U A6G A41C C45A, for which the self-cleavage came out at 0.

As to G1U A6C U9A C10A A25U, the self-cleavage was determined as 0.03.

Consider G1U C3G A6C G7U, for which the self-cleavage was 0.06.

Turning to G1U A12U C46G, the self-cleavage stood at 0.48.

G1U A4U A16G G19A U34A G36A: the self-cleavage came to 0.02.

Consider G1U A4U C8A C18G G40A C45U, for which the self-cleavage stood at 0.08.

Take G1U A25U G29A: the self-cleavage was determined as 0.29.

As to G1U A12C G19C, the self-cleavage was 0.

As to G1U A11U C18G G27A, the self-cleavage turned out to be 0.01.

G1U A11C C23U U28C U32A: the self-cleavage was determined as 0.02.

As for G1U A16U C31G C37U C42U, the self-cleavage stood at 0.02.

Regarding G1U A12G C42U C46G, the self-cleavage amounted to 0.02.

On to G1U A6G G33C A39G, for which the self-cleavage was 0.01.

Regarding G1U A4G C23G, the self-cleavage was determined as 0.14.

With G1U A41U C46G, the self-cleavage was found to be 0.35.

G1U A6G C8A G30A G35A C42A C45G: the self-cleavage amounted to 0.03.

In the case of G1U A4G G17U G19A A24C G27U U28G G40C, the self-cleavage was determined as 0.01.

For the variant G1U A6C C31A C46A, the self-cleavage was 0.03.

Turning to G1U A6G C10U C31U G33A, the self-cleavage came out at 0.01.

As to G1U C3G A14G G22C G44C, the self-cleavage was 0.14.

With G1U C3A C10U A16G A24U G35A, the self-cleavage was found to be 0.02.

In the case of G1U A12U A14G A16U, the self-cleavage worked out at 0.

In the case of G1U A24U G40U, the self-cleavage was found to be 0.03.
